Data published in PubChem BioAssay AID1745853 (National Center for Advancing Translational Sciences (NCATS), 2022).
The other results are listed elsewhere or left out. The main result of the screen is listed elsewhere. These columns were measured beside it and carry no call.

Tests used:
Assay in all cases: Primary Screen for Target Class Profiling of Small Molecule Inhibitors of Methyltransferases
[1] = molecular target: Glycine N-methyltransferase (Homo sapiens) (UniProt Q14749); conditions: purified enzyme, MTase-Glo SAH luminescence; measured here: GNMT inhibition; at 40 µM; stronger effect = lower value
Outline: (§1)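 Each enzyme was reacted with SAM and its substrate, with compounds tested once at 40 uM; SAH formed was read by MTase-Glo luminescence.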

[2] = molecular target: Guanidinoacetate N-methyltransferase (Homo sapiens) (UniProt Q14353); conditions: purified enzyme, MTase-Glo SAH luminescence; measured here: GAMT inhibition; at 40 µM; stronger effect = lower value
Outline: as §1

[3] = molecular target: Histamine N-methyltransferase (Homo sapiens) (UniProt P50135); conditions: purified enzyme, MTase-Glo SAH luminescence; measured here: HNMT inhibition; at 40 µM; stronger effect = lower value
Outline: as §1

[4] = molecular target: Nicotinamide N-methyltransferase (Homo sapiens) (UniProt P40261); conditions: purified enzyme, MTase-Glo SAH luminescence; measured here: NNMT inhibition; at 40 µM; stronger effect = lower value
Outline: as §1

[5] = molecular target: Phenylethanolamine N-methyltransferase (Homo sapiens) (UniProt P11086); conditions: purified enzyme, MTase-Glo SAH luminescence; measured here: PNMT inhibition; at 40 µM; stronger effect = lower value
Outline: as §1
On the % scale 0 is the no-effect control and ±100 the full control effect.

Row | SMILES | activity change, negative = inhibition [1] [%] | activity change, negative = inhibition [2] [%] | activity change, negative = inhibition [3] [%] | activity change, negative = inhibition [4] [%] | activity change, negative = inhibition [5] [%]
1 | CC(C)OCCCn1c(=O)c2ccccc2n2c(SCC(=O)Nc3ccc(F)cc3)nnc12 | -1.39 | 6.26 | -0.311 | -3.42 | 1.71
2 | Cn1c(CCNC(=O)CC2CCOCC2)nc2ccccc21 | -0.812 | -9.08 | 3.7 | -1.25 | 2.05
3 | O=C(NCCCc1ccccc1)c1nc2sccn2c1-c1cccc(C(F)(F)F)c1 | -3.64 | -7.26 | -4.73 | -16.8 | -4.46
4 | COc1ccc(OC)c(S(=O)(=O)N2CCC(C)CC2)c1 | -0.01 | 3.55 | 3 | 1.9 | -3.67
5 | C=C1[C@@H]2[C@H]3OC(=O)C(=C)[C@@H]3CC[C@@](C)(O)[C@@H]2C[C@@H]1O[C@@H]1O[C@H](CO)[C@@H](O)[C@H](O)[C@H]1O | -0.561 | -3.77 | 4.39 | -12.2 | 2.41
6 | CN1CC(=O)N(C2CCNCC2)Cc2c(NCCCO)ncnc21 | -2.11 | -1.89 | -4.02 | -3.27 | -13.4
7 | CC(C(=O)NCc1cccc(F)c1)n1ccc2cc(S(=O)(=O)N3CCCCC3)ccc21 (centres undefined) | 5.59 | 0 | 8.6 | 6.61 | 6.51
8 | COc1ccc2cc3n(c2c1)CC(C)(C(=O)NCC1CCCO1)N(Cc1ccccc1)C3=O (centres undefined) | -2.86 | 3.5 | 0.723 | -2.08 | -0.001
9 | CS(=O)(=O)c1ccc([C@H](CC2CCCC2)C(=O)Nc2nccs2)cc1 | 1.72 | -0.298 | 6.25 | -20.2 | -8.11
10 | CC1=C[C@@H](CNC(=O)C(C)(C)C)[C@H](C(C)C)C[C@H]1Cc1nnc(-c2ccncc2)o1 | -9.67 | -5.35 | -10.7 | -20.4 | -8.28
11 | CCOc1ccccc1CN1CCN(Cc2nccn2CC)CC1CCO (centres undefined) | -5.89 | -4.88 | -3.31 | -7.05 | -1.03
12 | C=CCn1c(=O)c2ccc(C(=O)NC(C)C)cc2n2c(=O)n(CC(=O)Nc3c(C)cccc3C)nc12 | 3.51 | 0.091 | 3.87 | 3.67 | -1.57
13 | CC(C)n1c(=O)c2ccc(C(=O)NC3CCCCC3)cc2n2c(=O)n(CC(=O)c3ccc(F)cc3)nc12 | 6.82 | 2.85 | 12.7 | 1.9 | 6.29
14 | CC(C)CCNC(=O)C1(C)Cn2c(cc3ccccc32)C(=O)N1CCc1ccco1 (centres undefined) | -10.9 | 1.07 | -2.37 | -12.3 | -1.78
15 | O=c1c2ccccc2n2c(SCc3ccc(F)cc3)nnc2n1CCc1ccccc1 | -5.88 | -3.36 | -2.45 | -7.62 | -7.09
16 | CC(=O)N(C1CC1)C1CCOC2(CCN(C(=O)Cn3c(=O)oc4ccccc43)CC2)C1 (centres undefined) | -1.11 | -0.571 | 2.32 | 2.79 | -0.889
17 | CCOC(=O)C1CCN(C(=O)c2ccc3nccn3c2)CC1 | -0.755 | 1.68 | 3.06 | -1.57 | -5.91
18 | Cc1ncc(Cl)cc1NCc1ccc(C(=O)N[C@@H](CC2CCCC2)C(=O)NC2CC2)s1 | -9.5 | – | 6.91 | -15.5 | 19.7
19 | O=C(C1CN(C2CCCC2)C(=O)N1)N1CCN(c2ncccn2)CC1 (centres undefined) | -0.795 | 0.549 | 1.66 | -2.49 | 2.05

Row | SMILES | activity change, negative = inhibition [1] [%] | activity change, negative = inhibition [2] [%] | activity change, negative = inhibition [3] [%] | activity change, negative = inhibition [4] [%] | activity change, negative = inhibition [5] [%]
20 | C=CCn1c(=O)c2c(nc(-c3ccc(S(=O)(=O)O)cc3)n2C)n(C)c1=O | 3.37 | 7.48 | 13 | -5.25 | 3.79
21 | CCn1c(CN(C)C)nnc1C1CCN(C(=O)Cn2nc(C)cc2N)CC1 | -5 | -6.79 | -1.78 | -7.86 | -7.55
22 | COCCNC(=O)[C@H]1C[C@H](Oc2ccccc2)CN1Cc1ccncc1 | -4.98 | -8.93 | -2.75 | -10.4 | -5.49
23 | CC(C)(O)C1CC=C(C(=O)OCC2OC(Oc3c(O)cc(C(=O)O)cc3O)C(O)C(O)C2O)CC1 (centres undefined) | 0.961 | 3.37 | 9.12 | -9.08 | 3.6
24 | O=C(NCc1ccccc1)c1ccc2c(=O)nc3c(-c4ccccc4)n[nH]n3c2c1 | -26 | 2.85 | -0.543 | -0.485 | -5.14
25 | CCc1ccc(NC(=O)CSc2nnc3n(CCC(C)C)c(=O)c4ccccc4n23)cc1 | -1.17 | 5.12 | 2.12 | -6.33 | 2.14
26 | OC[C@H]1O[C@@H](Oc2cc(O)cc(-c3cc4ccc(O)cc4o3)c2)[C@H](O)[C@@H](O)[C@@H]1O | 0.483 | 0.51 | 7.46 | -8.18 | 4.21
27 | OC1(c2csc(CN3CCOCC3)n2)CCN(Cc2ccc(F)cc2)CC1 | -1.19 | -1.66 | 1.38 | -1.71 | -4.56
28 | CN1C(=O)c2cc(C(=O)N3CCCCC3)nn2CC1(C)C(=O)NCc1ccccc1 (centres undefined) | 4.35 | 0 | 4.67 | 5.31 | 1.1
29 | CCOc1ccc(N(C(=O)c2ccc(Cl)cc2)S(=O)(=O)c2ccc3c(c2)n(C)c(=O)n3C)cc1 | -5.31 | 3.6 | -3.83 | -4.36 | -4.19
30 | CC1CCCC(NC(=O)C2(C)Cn3c(ccc3-c3ccco3)C(=O)N2Cc2cccs2)C1C (centres undefined) | 1.73 | 0 | 4.61 | -11.1 | 1.31
31 | CC1(C(=O)NC2CCCCC2)Cn2nc(-c3ccco3)cc2C(=O)N1Cc1ccco1 (centres undefined) | -7.64 | 2.7 | -4.78 | -3.26 | -4.61
32 | Nc1nc(CCC(=O)N[C@@H]2[C@@H](Cc3ccccc3)[C@H]3OCC[C@@H]23)cs1 | -4.45 | -5.34 | -1.5 | -8.85 | -8.94
33 | CCCn1c(=O)c2ccc(C(=O)NC3CCCC3)cc2n2c(=O)n(CC(=O)NC3CCCC3)nc12 | 5.68 | 0 | 11.1 | 1.52 | 3.27
34 | Cc1noc(C)c1CC(=O)N1CCCn2ccnc2C1c1ccccc1 (centres undefined) | 2.24 | -2.13 | -0.362 | -1.45 | -10.8
35 | COc1ccccc1CN1C(=O)c2nc3ccccc3n2CC1(C)C(=O)NC1CCCCCC1 (centres undefined) | -4.14 | 3.18 | 1.32 | -11.5 | -5
36 | C[C@@H]1CN(C(=O)c2cccc(N3CCNC3=O)c2)C[C@@]1(O)C1CC1 | -4.75 | -6.84 | -2.56 | -7.84 | -3.12
37 | COCCCNc1nc2c(-c3cccc(C)c3)nnn2c2ccccc12 | -6.62 | 4.56 | -0.417 | 1.92 | -5.86
38 | CN1CCN(C(=O)N2CCC3(CCCN(C4CCCC4)C3=O)C2)CC1 (centres undefined) | -4.01 | -6.93 | -1.07 | -11.6 | -7.53

Row | SMILES | activity change, negative = inhibition [1] [%] | activity change, negative = inhibition [2] [%] | activity change, negative = inhibition [3] [%] | activity change, negative = inhibition [4] [%] | activity change, negative = inhibition [5] [%]
39 | COCC(=O)NC[C@H]1CCN(Cc2ccccn2)C[C@H]1N(C)C | -4.51 | -7.14 | -0.633 | -14.9 | -7.27
40 | C[C@@H]1O[C@@H](O[C@H]2[C@H](OC(=O)[C@]34CCC(C)(C)C[C@H]3C3=CCC5[C@@]6(C)C[C@H](O)[C@H](O[C@@H]7O[C@H](C(=O)O)[C@@H](O)[C@H](O)[C@H]7O)[C@@](C)(CO)C6[C@H](O)C[C@@]5(C)[C@]3(C)C[C@H]4O)O[C@@H](CO)[C@@H]2O)[C@H](O)[C@H](O)[C@H]1O[C@@H]1OC[C@@H](O)[C@H](O[C@H]2OC[C@](O)(CO)[C@H]2O)[C@H]1O (some centres undefined) | -2.29 | -6.66 | 2.89 | -13.9 | 0.641
41 | O=C1NCCOCCCN(S(=O)(=O)c2cccs2)[C@H]2CCCC[C@@H]12 | -4.73 | -6.9 | -2.55 | -12.1 | -12
42 | COC[C@@H]1CN(Cc2cnn(C(C)C)c2)C[C@H]1C(=O)NC1CC1 | 0.271 | 0.266 | 0.662 | 1.66 | 0.386
43 | COc1ccc(-c2nc3c(c(=O)[nH]2)CCN(C(=O)Nc2ccccc2Cl)C3)cc1 | -19.8 | -3.51 | -5.74 | -9.16 | 8.54
44 | O=S(=O)(c1ccc(S(=O)(=O)n2cnc3ccccc32)cc1)N1CCCCCC1 | 2.19 | 2.35 | -2.22 | -17.9 | -8.06
45 | CCN1CCc2nc(N)oc2CC1 | -14.8 | 12.2 | -29.1 | -1.42 | 2.87
46 | O=C(O)C(O[C@@H]1O[C@H](CO[C@@H]2O[C@H](CO)[C@@H](O)[C@H](O)[C@H]2O)[C@@H](O)[C@H](O)[C@H]1O)c1ccccc1 (some centres undefined) | 0 | 6.17 | 10.2 | -2.1 | 5.68
47 | CCC(C)/C=C(C)/C=C/C1=CC2=C(Cl)C(=O)C(C)(OC(C)=O)C(=O)C2=CN1C(CCCN=C(N)N)C(=O)O (centres undefined) | -5.91 | 3.43 | 4.94 | -9.4 | -5.76
48 | CCCNC(=O)N1CCCC(c2nc(CCOc3ccc(F)cc3)no2)C1 (centres undefined) | -2.35 | 2.06 | -0.213 | -1.27 | 0.058
49 | O=S(=O)(c1ccccc1)c1nnn2c1nc(N1CCCC1)c1cc(Cl)ccc12 | -2.33 | 0 | 3.67 | -6.9 | -2
50 | CCc1cc2c(cc3n2CC(C)(C(=O)NC2CCC(C)CC2)N(Cc2ccc(Cl)cc2)C3=O)s1 (centres undefined) | 4.32 | -0.214 | 5.99 | 4.14 | 2.7
51 | CC1(C)OC(=O)C=C[C@@]2(C)C1CC(=O)[C@]1(C)C2CC[C@@]2(C)[C@H](c3ccoc3)OC(=O)[C@H]3O[C@]321 (some centres undefined) | -0.569 | -1.81 | 2.28 | -17 | 0.039
52 | C=C(COC(=O)C(O)C(O)CN)C12OC1C1(C)C(=CC2=O)C(O)C(O)CC1C (centres undefined) | 0 | 16.3 | 10 | 1.66 | 6.78
53 | CC(=O)N1CC2(CCCN2Cc2cccc(C(N)=O)c2)Cc2ccccc21 (centres undefined) | -8.78 | -6.85 | -9.24 | -12.4 | -10.2
54 | COC(=O)c1ncn2c1C(=O)N(Cc1ccc(C)cc1)C(C)(C(=O)NC1CCCCCC1)C2 (centres undefined) | 7.92 | 4.2 | 8.01 | 8.87 | 6.79
55 | CCC(C)NC(=O)c1ccc2c(=O)n(C)c3nnc(SCc4cccc(F)c4)n3c2c1 (centres undefined) | 6.87 | 0 | 6.29 | 9.88 | 3.71
56 | CC1(C(=O)NC2CCCCC2)Cn2c(nc3ccccc32)C(=O)N1Cc1cccnc1 (centres undefined) | -2.92 | 4.76 | -0.52 | -0.605 | -0.98
57 | C[N+](C)(C)CCOC(=O)CCC(=O)OCC[N+](C)(C)C | 0.064 | 11.1 | 2.08 | -4.95 | 8.34
